Screen size: about 310,000 compounds; about 14,000 (4.5%) showed an effect of 50% or more. Effects have a minus sign here. Some of the results follow.
biological target: human ether-à-go-go-related gene (hERG) potassium channel (human, UniProt Q12809); test: primary screen, population patch clamp on CHO cells stably expressing hERG
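Note: peak tail current of the secondary pulse compared with the same well before compound.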

Sequence of human ether-à-go-go-related gene (hERG) potassium channel (Q12809 whole entry, looked up): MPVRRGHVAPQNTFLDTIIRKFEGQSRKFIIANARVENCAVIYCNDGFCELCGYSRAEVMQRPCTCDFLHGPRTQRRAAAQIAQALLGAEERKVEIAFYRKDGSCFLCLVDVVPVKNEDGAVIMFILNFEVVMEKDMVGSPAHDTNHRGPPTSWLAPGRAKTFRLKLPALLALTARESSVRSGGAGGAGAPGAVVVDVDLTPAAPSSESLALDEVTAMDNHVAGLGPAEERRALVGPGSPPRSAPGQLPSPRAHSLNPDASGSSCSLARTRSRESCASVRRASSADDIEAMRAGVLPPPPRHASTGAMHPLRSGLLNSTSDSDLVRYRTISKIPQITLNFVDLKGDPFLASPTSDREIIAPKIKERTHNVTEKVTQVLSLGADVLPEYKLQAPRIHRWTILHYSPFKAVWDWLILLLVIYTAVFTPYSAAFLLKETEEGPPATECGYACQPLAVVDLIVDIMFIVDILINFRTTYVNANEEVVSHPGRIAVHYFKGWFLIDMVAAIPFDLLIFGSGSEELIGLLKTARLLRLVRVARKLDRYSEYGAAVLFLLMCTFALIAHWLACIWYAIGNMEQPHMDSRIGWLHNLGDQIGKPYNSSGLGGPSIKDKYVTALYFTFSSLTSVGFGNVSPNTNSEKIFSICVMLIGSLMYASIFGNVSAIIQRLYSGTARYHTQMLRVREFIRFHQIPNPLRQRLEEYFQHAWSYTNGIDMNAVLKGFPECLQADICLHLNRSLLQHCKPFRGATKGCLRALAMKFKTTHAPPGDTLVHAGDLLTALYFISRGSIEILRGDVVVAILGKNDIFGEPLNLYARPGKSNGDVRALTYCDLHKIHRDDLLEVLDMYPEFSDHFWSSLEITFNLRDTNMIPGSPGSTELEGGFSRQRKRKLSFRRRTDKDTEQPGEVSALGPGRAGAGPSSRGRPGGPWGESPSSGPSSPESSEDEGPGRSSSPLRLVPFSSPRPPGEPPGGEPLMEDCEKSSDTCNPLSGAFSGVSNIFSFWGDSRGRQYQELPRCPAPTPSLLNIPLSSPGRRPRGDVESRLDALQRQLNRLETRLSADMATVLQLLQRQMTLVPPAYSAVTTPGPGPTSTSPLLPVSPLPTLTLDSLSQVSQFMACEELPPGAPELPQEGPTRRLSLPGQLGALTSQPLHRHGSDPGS

Compared with `CC(=O)NCCC1CCCCN1C(=O)c1cc(COc2cc(C)ccc2C)on1` (centres unmarked), `COc1cccc(CC2(CO)CCCN(Cc3cn[nH]c3-c3cc(C)ccc3C)C2)c1` (centres unmarked) is lower in “hERG current change (%, negative = inhibition) at 10uM” value: -10.9% for the first, -59.2% for the second.

First: CC(NC(=O)Cc1ccc(S(=O)(=O)N2CCOCC2)s1)c1ccc(Cl)c(Cl)c1 (centres unmarked)
Second: O=C(NCCCN1CCOCC1)c1ccc(CS(=O)(=O)Cc2ccccc2Cl)o1
The “hERG current change (%, negative = inhibition) at 10uM” value of the first is lower: -35.8% for the first, 6.76% for the second.

Compared with `NS(=O)(=O)c1ccc(CNC(=O)COc2ccc3c4c(c(=O)oc3c2)CCCC4)cc1`, `NS(=O)(=O)c1ccc(CCNC(=O)C2CCCN2S(=O)(=O)c2cccc3nsnc23)cc1` (centres unmarked) is lower in “hERG current change (%, negative = inhibition) at 10uM” value: 19.7% for the first, 18.2% for the second.

Going from `CCC(C)(C)NC(=O)CN(C(=O)c1ccc(N2CCCC2)nc1)c1ccc(F)cc1` to `Cc1ccc(OCCNC(=O)c2ccc(NC(=O)CC3SC(N4CCCC4)=NC3=O)cc2)cc1` (centres unmarked), the “hERG current change (%, negative = inhibition) at 10uM” value falls from 12.8% to -24.1%.

First: CC(C)(C)NC(=O)COC(=O)CCC(=O)c1cccs1
Second: CCOC(=O)CNC(=O)CNC(=O)C(Cc1ccc(N(CCCl)CCCl)cc1)NC(C)=O (centres unmarked)
The “hERG current change (%, negative = inhibition) at 10uM” value of the first is lower: 4.57% for the first, 17.5% for the second.

Compared with `CN(CCc1ccccc1)c1ccc([N+](=O)[O-])cn1`, `CC(CCc1ccccc1)NS(=O)(=O)c1ccc(Cl)c(C(=O)O)c1` (centres unmarked) is higher in “hERG current change (%, negative = inhibition) at 10uM” value: 2.08% for the first, 11.7% for the second.

Compared with `CC(C)c1cc(C(=O)Nc2cc(Cl)ccc2O)no1`, `CC(C)(O)CNC(=O)Nc1ccc(Cl)c(Cl)c1` is higher in “hERG current change (%, negative = inhibition) at 10uM” value: -12.5% for the first, 8.04% for the second.

First: CCC(C)n1ncn(-c2ccc(N3CCN(c4ccc(O)cc4)CC3)cc2)c1=O (centres unmarked)
Second: Cc1ccc(-n2nnnc2SCC(=O)Nc2ccccc2N2CCCCC2)cc1C
The “hERG current change (%, negative = inhibition) at 10uM” value of the first is lower: 0.0619% for the first, 14.3% for the second.

First: CC(C)n1c(SCC(=O)NC2CC2)nnc1-c1ccco1
Second: CCCn1c(SCC(=O)Nc2ccc(OC)cc2[N+](=O)[O-])n[nH]c1=O
The “hERG current change (%, negative = inhibition) at 10uM” value of the first is higher: 6.51% for the first, -2.34% for the second.

First: O=C(Nc1ncccc1Cl)c1cc2ccccc2o1
Second: O=C(Nc1ccc2ccccc2c1)c1cnccn1
The “hERG current change (%, negative = inhibition) at 10uM” value of the first is higher: 11.5% for the first, 5.67% for the second.

First: Nc1n[nH]c2cc(=O)n(-c3ccc(Cl)cc3)nc12
Second: Nc1nc(-c2ccco2)nn1C(=O)c1ccc(Cl)cc1
The “hERG current change (%, negative = inhibition) at 10uM” value of the first is higher: 20% for the first, 10.1% for the second.

Compared with `CNC(=O)CSc1nc2nn(-c3ccccc3)c(=O)c-2c2n1CCCCC2`, `Cn1ccnc1SCc1nc2c(cnn2-c2ccccc2)c(=O)[nH]1` is higher in “hERG current change (%, negative = inhibition) at 10uM” value: -37.2% for the first, -13.7% for the second.

First: Cc1onc(-c2ccccc2)c1C(=O)NCC(O)c1ccccc1 (centres unmarked)
Second: Cc1cc(C)n(C(=O)CNC(=O)C(c2ccccc2)c2ccccc2)n1
The “hERG current change (%, negative = inhibition) at 10uM” value of the first is higher: 5% for the first, -3% for the second.

Going from `O=C(NCc1ccc(C(=O)N2CCC3(CC2)OCCO3)cc1)c1cccc(Br)c1` to `O=C(Oc1ccccc1C(=O)N1CCOCC1)c1cccc(Br)c1`, the “hERG current change (%, negative = inhibition) at 10uM” value falls from -2.3% to -7.73%.

First: O=C(NC1CC1)c1ccc2c(Cl)c3c(nc2c1)CCCC3
Second: O=C(Oc1ccc(F)cc1)c1ccc2c(=O)n3c(nc2c1)CCC3
The “hERG current change (%, negative = inhibition) at 10uM” value of the first is lower: -63.7% for the first, -21.6% for the second.

Going from `O=C1N/C(=N\N=C\c2cccs2)SC1Cc1ccc(Cl)cc1Cl` (centres unmarked) to `O=C(NCc1cccs1)c1ccc(CS(=O)Cc2ccccc2Cl)o1` (centres unmarked), the “hERG current change (%, negative = inhibition) at 10uM” value rises from 5.84% to 7.77%.

First: Cl.NCCc1nnc(SCc2c(Cl)cccc2Cl)o1
Second: Cc1[nH]c2ccc(OCc3ccccc3)cc2c1CCN.Cl
The “hERG current change (%, negative = inhibition) at 10uM” value of the first is higher: 5.26% for the first, 3.53% for the second.

Going from `COCCNC(=S)N1CCN(S(=O)(=O)c2ccc(Cl)s2)CC1` to `CC(C)OCCCNC(=S)N1CCC(C(=O)c2ccc(Cl)cc2)CC1`, the “hERG current change (%, negative = inhibition) at 10uM” value falls from -5.63% to -27.7%.

Compared with `O=C(O)C1Cc2ccccc2CN1C(=O)COc1ccc(Br)cc1` (centres unmarked), `COc1ccc(CNC(=O)C2(CC3CC(c4ccccc4)=NO3)CCN(C(=O)OC(C)(C)C)CC2)cc1` (centres unmarked) is lower in “hERG current change (%, negative = inhibition) at 10uM” value: 28% for the first, -30.5% for the second.

Compared with `COC(=O)c1cc2sc(Cl)cc2n1CC(=O)N1CCCc2ccccc21`, `CCc1cc(Cn2nc(-c3ccccc3)cc2C(=O)O)on1` is higher in “hERG current change (%, negative = inhibition) at 10uM” value: -1.75% for the first, -1.7% for the second.

Compared with `Cc1csc(NC(=O)C2CCCN2C(=O)OCC(C)C)n1` (centres unmarked), `COc1ccc(C(=O)NNC(=O)C2CC=CCC2)cc1` (centres unmarked) is higher in “hERG current change (%, negative = inhibition) at 10uM” value: 8.73% for the first, 11.5% for the second.

First: CC1CCCN(C(=O)c2sc3cc([N+](=O)[O-])ccc3c2Cl)C1 (centres unmarked)
Second: Cc1ncc([N+](=O)[O-])n1CC(=O)Nc1ccc(F)c(Cl)c1
The “hERG current change (%, negative = inhibition) at 10uM” value of the first is lower: -36.5% for the first, 10.5% for the second.

Compared with `COc1cccc([C@@H]2CC=C(C(=O)O)CN2S(=O)(=O)c2ccc(C)cc2)c1`, `COc1ccc(CNC(=O)CN(Cc2ccco2)C(=O)CNS(=O)(=O)c2ccc(C)cc2)cc1` is lower in “hERG current change (%, negative = inhibition) at 10uM” value: 16% for the first, -73% for the second.

Compared with `CN(C)S(=O)(=O)c1ccc(Cl)c(NC(=O)CSc2nc3ccccc3c(=O)n2CCCN2CCOCC2)c1`, `Cc1ccc(CNC(=O)CCc2c(C)nn(-c3ccc(N4CCOCC4)nn3)c2C)cc1` is higher in “hERG current change (%, negative = inhibition) at 10uM” value: -73.9% for the first, 12.1% for the second.

First: COc1ccc(C2C(C#N)=C(N)Oc3c2ccc2cccnc32)cc1OC (centres unmarked)
Second: COc1ccc(C2C(C#N)=C(N)N(c3cccnc3)C3=C2C(=O)CCC3)cc1Cn1cc([N+](=O)[O-])cn1 (centres unmarked)
The “hERG current change (%, negative = inhibition) at 10uM” value of the first is higher: -11.6% for the first, -25% for the second.

First: CN(C)CCCN(C(=O)COc1ccccc1)c1nc2cc3c(cc2s1)OCO3.Cl
Second: Cn1c(OCc2ccc3c(c2)OCO3)nc2c1c(=O)n(Cc1ccc(Cl)c(Cl)c1)c(=O)n2C
The “hERG current change (%, negative = inhibition) at 10uM” value of the first is lower: -65.4% for the first, -5.5% for the second.

Compared with `Cc1sc2nc(CSc3cccc(C(F)(F)F)c3)[nH]c(=O)c2c1C`, `Cc1c(C(C)(C)O)[nH]c2cc(C(F)(F)F)ccc12` is higher in “hERG current change (%, negative = inhibition) at 10uM” value: 9.95% for the first, 34.1% for the second.

Going from `Cc1cc(NCCO)nc(-n2nc(C)cc2C)n1` to `Cc1cc(C)c(NC(=O)CSc2nc3[nH]ncc3c(=O)[nH]2)c(C)c1`, the “hERG current change (%, negative = inhibition) at 10uM” value rises from -0.56% to 20.9%.

Going from `c1ccc(-c2noc(C3CCCCC3)n2)nc1` to `O=C(Nc1ccccc1)c1cccc(S(=O)(=O)NC2CCCC2)c1`, the “hERG current change (%, negative = inhibition) at 10uM” value falls from 15.9% to 5.41%.

Going from `COCCCn1c(C)nnc1SCc1ccc(C(C)(C)C)cc1` to `CC(C)(C)c1ccc(OCCC(=O)NC2=NCCS2)cc1`, the “hERG current change (%, negative = inhibition) at 10uM” value rises from -1.53% to 10.9%.

Compared with `O=C(Cn1c(N2CCN(C/C=C/c3ccccc3)CC2)nc2ccccc21)c1ccccc1`, `C=C1CCN([C@@H](Cc2ccccc2)C(=O)NC2CCN(Cc3ccccc3)CC2)S(=O)(=O)c2ccccc21` is higher in “hERG current change (%, negative = inhibition) at 10uM” value: -51.2% for the first, -21.3% for the second.

Compared with `C(=N\Nc1nc(Nc2ccccc2)nc(N2CCCCC2)n1)/c1ccco1`, `S=c1[nH]nc(COc2ccccc2)n1/N=C/c1cccnc1` is higher in “hERG current change (%, negative = inhibition) at 10uM” value: 0.0871% for the first, 11.9% for the second.

Going from `COC(=O)c1nn(-c2ccccc2)c(=O)cc1Oc1ccccc1` to `COC(=O)C1=C(SC)N(c2ccccc2)C(c2ccccc2)CC1=O` (centres unmarked), the “hERG current change (%, negative = inhibition) at 10uM” value falls from -1.94% to -29.3%.

Compared with `COc1ccc(OC)c(NC(=S)N2CCN(C(=O)C3CCCO3)CC2)c1` (centres unmarked), `COc1ccc(OC)c(/C=C2\SC(N3CCCCC3)=NC2=O)c1` is lower in “hERG current change (%, negative = inhibition) at 10uM” value: -1.34% for the first, -6.02% for the second.

Compared with `CC(C(=O)NC1CCCCC1)N1CCN(S(=O)(=O)c2cccs2)CC1` (centres unmarked), `CCN(C(=O)CN1CCCCC1)C1(C)C(=O)c2ccccc2C1=O` is higher in “hERG current change (%, negative = inhibition) at 10uM” value: -9.2% for the first, 6.06% for the second.

First: Br.CCCCCCCCn1ccc(=N)cc1
Second: CCCCCCc1cc2cc(S(=O)(=O)c3ccc(C)cc3)c(=O)oc2cc1O
The “hERG current change (%, negative = inhibition) at 10uM” value of the first is lower: -27% for the first, 13.6% for the second.

Going from `COc1ccc2cc3cc(C(=O)NCc4ccccn4)oc3nc2c1` to `CC(C)(C)c1ccc(-c2nc(NCc3cccnc3)c3ccccc3n2)cc1`, the “hERG current change (%, negative = inhibition) at 10uM” value falls from 12.1% to -0.796%.

Going from `O=C1c2c(Br)c(Br)c(Br)c(Br)c2C(=O)N1c1ccccn1` to `Cc1ccc(S(=O)(=O)Nc2ccccc2CNc2ccccn2)cc1`, the “hERG current change (%, negative = inhibition) at 10uM” value falls from 24.9% to 7.48%.

First: COC(=O)N/N=C(C)/C=C/c1ccccc1
Second: C/C(=N\NC(N)=O)c1ccc(Cl)cc1
The “hERG current change (%, negative = inhibition) at 10uM” value of the first is lower: 4.42% for the first, 6.12% for the second.

Going from `Cc1nn(-c2ccc(F)cc2)c2nc(N)c(C#N)c(-c3cccs3)c12` to `CC(Sc1nncn1-c1ccccc1)C(=O)Nc1cccc([N+](=O)[O-])c1` (centres unmarked), the “hERG current change (%, negative = inhibition) at 10uM” value falls from 7.18% to -17.2%.

Going from `CCCC(=O)c1cc(F)c(N2CCOCC2)cc1C` to `CC(=O)Nc1ccc(SCCN2CC[C@@H](C)CCC2=O)cc1`, the “hERG current change (%, negative = inhibition) at 10uM” value rises from -10.7% to -1.31%.

Going from `Cc1ccccc1C(=O)Nc1sc(C)c(C)c1C(=O)c1ccccc1` to `CCN(CC)S(=O)(=O)c1cccc(C(=O)OCC(=O)NCc2ccccc2OC)c1`, the “hERG current change (%, negative = inhibition) at 10uM” value falls from 22.2% to -33.1%.

Going from `Cc1ccc(C2C3=C(CC(C)(C)CC3=O)Nc3n[nH]c(C)c32)cc1` (centres unmarked) to `CCN1CCN(CCNC(=O)c2ccc(CS(=O)c3ccc(Br)cc3)o2)CC1` (centres unmarked), the “hERG current change (%, negative = inhibition) at 10uM” value rises from -10.4% to -2.5%.

First: NC(=O)c1ccc(C(F)(F)F)cn1
Second: CCc1nnc(N/N=C/c2ccccc2F)n1N.Cl
The “hERG current change (%, negative = inhibition) at 10uM” value of the first is lower: 17.8% for the first, 28.9% for the second.

In the case of `CCC12CN3CCN(CC(C3)/C1=N/NC(=O)c1ccncc1)C2`, the “hERG current change (%, negative = inhibition) at 10uM” value is reported as 21.2%.

Source: PMC4336329 (PLoS ONE, 2015)
